Experimental data from patent US7166622B2, “Substituted phenylsulfonamide inhibitors of beta amyloid production” (Wyeth, priority 2002, dated 2007).
Values joined by “and” are separate entries in the source; they are usually repeats but may differ in a detail not shown here. Equal values may be shown once. The name of at least one read-out is uncertain.

Each compound was assayed on beta amyloid production (assay: Repressor Release Assay (RRA)). Conditions: Conc 3 μg/ml; relative to Example 98.
Assay type: cell-based
Protocol: CHO-K1 cells were cultured in whole DMEM media (DMEM—High Glucose with 10% fetal bovine serum, 1% Non-essential Amino Acids, and 1% Penicillin-Streptomycin) at 37° C. with 5% CO2. Two million cells were plated into 10-cm dishes 24 hrs prior to transfection.
Transient transfections were completed as recommended by Gibco BRL using their Lipofectamine Plus system. First, 6 μg of pRSVO-luc and 6 μg of APP-lacI construct DNA were added to 460 μL Opti-Mem transfection media and incubated with 30 μL Plus reagent for 15 minutes. Then, a lipid mixture of 40 μL Lipofectamine reagent and 460 μL Opti-Mem transfection media was incubated with the DNA-Plus reagent mixture for 15 minutes. During the DNA-lipid incubation, the CHO-K1 cells were washed once and covered in 5.0 mL DMEM media without Penicillin-Streptomycin. The DNA-lipid preparation was then layered onto these cells and incubated at 37° C. overnight.
[…] transfected cells per well (100 μL total volume) were plated into sterile, opaque Packard 96-well Culture-Plates in clear DMEM whole media (DMEM—without phenol red) and incubated at 37° C. with 5% CO2 for 3-5 hours.
Compounds were diluted using two different protocols; one protocol was used for compounds supplied neat (weighed powder in vial) and the other protocol was used for compounds supplied in solution (20 mM in DMSO in 96-well plates). For both protocols, 25 mM Hepes and 25 mM Hepes/1% DMSO were prepared fresh to be used as diluent. The Hepes/DMSO was used as the diluent control on all experimental plates.
The following table depicts the steps for compound dilution (please note that the last step was the addition of compound to cells/media in tissue culture plate).
Because some compounds were present in 96-well format at 20 mM, the following represents the protocol for their dilution (note that an average molecular weight of these compounds was used to calculate these dilutions and as above, the last step was the addition of compound to cells/media in tissue culture plate).
Once the compounds were diluted, they were applied in duplicate on cells in tissue culture plates (prepared above). Cells were incubated with compound at 37° C. with 5% CO2 for an additional 36-48 hours.
Luciferase assays (LucLite reagent, Packard) were performed and were read on a Packard TopCount instrument. Media was removed from each 96-well plate and replaced with 100 μL PBS per well (with Mg^2+ and Ca^2+). An equal volume (100 μL) of the LucLite lysis/substrate buffer was added to each well and the plates were sealed and mixed in the dark on a rotary shaker for 15-30 minutes at room temperature. Luciferase readings were then taken on the TopCount instrument. Measurements were expressed as relative light units (RLU) and are calculated and analyzed in MS Excel as follows: […]
With CC[C@H](C)[C@@H](CO)NS(=O)(=O)c1cccc(Cl)c1Cl [Example 23, 2,3-dichloro-N-[(1S,2S)-1-(hydroxymethyl)-2-methylbutyl]benzenesulfonamide] the “APPI % of Example #98” value was 54.13%.

Same assay, conditions: Conc 10 μg/ml; relative to Example 98
CC[C@H](C)[C@@H](CO)NS(=O)(=O)c1ccc(F)cc1F [Example 9, 2,4-difluoro-N-[(1S,2S)-1-(hydroxymethyl)-2-methylbutyl]benzenesulfonamide] was tested, and the “APPI % of Example #98” value was 63.5%. With CC[C@H](C)[C@@H](CO)NS(=O)(=O)c1cccc(Cl)c1Cl [Example 23, 2,3-dichloro-N-[(1S,2S)-1-(hydroxymethyl)-2-methylbutyl]benzenesulfonamide] the “APPI % of Example #98” value was 116.23%.

Same assay, conditions: Conc 20 μg/ml; luciferase activity over diluent control
CC[C@H](C)[C@@H](CO)NS(=O)(=O)c1ccc(F)cc1 [Example 10, 4-fluoro-N-[(1S,2S)-1-(hydroxymethyl)-2-methylbutyl]benzenesulfonamide] was tested, and the “APPI Fold Increase” value was 2.4 fold and 3.6 fold. In the case of CC(C)C[C@@H](CO)NS(=O)(=O)c1ccc(Br)cc1 [Example 18, 4-bromo-N-[(1S)-1-(hydroxymethyl)-3-methylbutyl]benzenesulfonamide], the “APPI Fold Increase” value is reported as 1.7 fold.

Same assay, conditions: Conc 20 μg/ml; relative to Example 98
In the case of CC[C@H](C)[C@@H](CO)NS(=O)(=O)c1ccccc1Br [Example 1, 2-Bromo-N-[(1S,2S)-1-(hydroxymethyl)-2-methylbutyl]benzenesulfonamide], the “APPI % of Example #98” value is reported as 27.2%. In the case of CC[C@H](C)[C@@H](CO)NS(=O)(=O)c1cccc(Br)c1 [Example 2, 3-bromo-N-[(1S,2S)-1-(hydroxymethyl)-2-methylbutyl]benzenesulfonamide], the “APPI % of Example #98” value is reported as 48.1%. With CC[C@H](C)[C@@H](CO)NS(=O)(=O)c1cccc(Cl)c1 [Example 3, 3-chloro-N-[(1S,2S)-1-(hydroxymethyl)-2-methylbutyl]benzenesulfonamide] the “APPI % of Example #98” value was 62.9%. With CC[C@H](C)[C@@H](CO)NS(=O)(=O)c1ccc(Cl)c2nnoc12 [Example 4, 4-chloro-N-[(1S,2S)-1-(hydroxymethyl)-2-methylbutyl]-1,2,3-benzoxadiazole-7-sulfonamide] the “APPI % of Example #98” value was 26.5%. In the case of CC[C@H](C)[C@@H](CO)NS(=O)(=O)c1ccc(F)cc1Cl [Example 5, 2-chloro-4-fluoro-N-[(1S,2S)-1-(hydroxymethyl)-2-methylbutyl]benzenesulfonamide], the “APPI % of Example #98” value is reported as 43.2%. For CC[C@H](C)[C@@H](CO)NS(=O)(=O)c1cc(Cl)ccc1OC [Example 6, 5-chloro-N-[(1S,2S)-1-(hydroxymethyl)-2-methylbutyl]-2-methoxybenzenesulfonamide], the “APPI % of Example #98” value was 30.2%. CC[C@H](C)[C@@H](CO)NS(=O)(=O)c1c(C)cccc1Cl [Example 7, 2-chloro-N-[(1S,2S)-1-(hydroxymethyl)-2-methylbutyl]-6-methylbenzenesulfonamide] was tested, and the “APPI % of Example #98” value was 27.1%. In the case of CC[C@H](C)[C@@H](CO)NS(=O)(=O)c1cc(Cl)cc(Cl)c1 [Example 8, 3,5-dichloro-N-[(1S,2S)-1-(hydroxymethyl)-2-methylbutyl]benzenesulfonamide], the “APPI % of Example #98” value is reported as 35.3%. With CC[C@H](C)[C@@H](CO)NS(=O)(=O)c1ccc(F)cc1F [Example 9, 2,4-difluoro-N-[(1S,2S)-1-(hydroxymethyl)-2-methylbutyl]benzenesulfonamide] the “APPI % of Example #98” value was 30.5%. With CC[C@H](C)[C@@H](CO)NS(=O)(=O)c1ccc(F)cc1 [Example 10, 4-fluoro-N-[(1S,2S)-1-(hydroxymethyl)-2-methylbutyl]benzenesulfonamide] the “APPI % of Example #98” value was 113.6% and 62.5% and 63.2%. CC[C@H](C)[C@@H](CO)NS(=O)(=O)c1ccccc1F [Example 11, 2-fluoro-N-[(1S,2S)-1-(hydroxymethyl)-2-methylbutyl]benzenesulfonamide] was tested, and the “APPI % of Example #98” value was 63.2%. For CC[C@H](C)[C@@H](CO)NS(=O)(=O)c1cccc2ccccc12 [Example 12, N-[(1S,2S)-1-(hydroxymethyl)-2-methylbutyl]naphthalene-1-sulfonamide], the “APPI % of Example #98” value was 54%. CC[C@H](C)[C@@H](CO)NS(=O)(=O)c1ccc2ccccc2c1 [Example 13, N-[(1S,2S)-1-(hydroxymethyl)-2-methylbutyl]naphthalene-2-sulfonamide] was tested, and the “APPI % of Example #98” value was 33.5%. With CC[C@H](C)[C@@H](CO)NS(=O)(=O)c1ccc(Cl)c(N)c1 [Example 14, 3-Amino-4-chloro-N-[(1S,2S)-1-(hydroxymethyl)-2-methylbutyl]benzenesulfonamide] the “APPI % of Example #98” value was 67%. With O=S(=O)(N[C@H](CO)Cc1ccccc1)c1ccc(Br)cc1 [Example 15, N-[(1S)-1-benzyl-2-hydroxyethyl]-4-bromobenzenesulfonamide] the “APPI % of Example #98” value was 26.5%. With O=S(=O)(N[C@H](CO)C1CCCCC1)c1ccc(Br)cc1 [Example 16, 4-Bromo-N-[(1S)-1-cyclohexyl-2-hydroxyethyl]benzenesulfonamide] the “APPI % of Example #98” value was 68.5%. With O=S(=O)(N[C@@H](CO)c1ccc(O)cc1)c1ccc(Br)cc1 [Example 17, 4-bromo-N-[(1R)-2-hydroxy-1-(4-hydroxyphenyl)ethyl]benzenesulfonamide] the “APPI % of Example #98” value was 56.4%. For CC(C)C[C@@H](CO)NS(=O)(=O)c1ccc(Br)cc1 [Example 18, 4-bromo-N-[(1S)-1-(hydroxymethyl)-3-methylbutyl]benzenesulfonamide], the “APPI % of Example #98” value was 48.6% and 41.8%. For O=S(=O)(N[C@H](CO)Cc1cc2ccccc2[nH]1)c1ccc(Br)cc1 [Example 19, 4-bromo-N-[(1S)-2-hydroxy-1-(1H-indol-2-ylmethyl)ethyl]benzenesulfonamide], the “APPI % of Example #98” value was 40.5%. In the case of CC[C@H](C)[C@@H](CO)NS(=O)(=O)c1cc(F)c(Br)cc1F [Example 20, 4-Bromo-2,5-difluoro-N-[(1S,2S)-1-(hydroxymethyl)-2methylbutyl]benzenesulfonamide], the “APPI % of Example #98” value is reported as 78.2%. In the case of CC[C@H](C)[C@@H](CO)NS(=O)(=O)c1cc(Br)ccc1Br [Example 21, 2,5-dibromo-N-[(1S,2S)-1-(hydroxymethyl)-2-methylbutyl]benzenesulfonamide], the “APPI % of Example #98” value is reported as 37.2%. In the case of CC[C@H](C)[C@@H](CO)NS(=O)(=O)c1ccc(Br)c(Br)c1 [Example 22, 3,4-dibromo-N-[(1S,2S)-1-(hydroxymethyl)-2-methylbutyl]benzenesulfonamide], the “APPI % of Example #98” value is reported as 39.5%. In the case of CC[C@H](C)[C@@H](CO)NS(=O)(=O)c1cccc(Cl)c1Cl [Example 23, 2,3-dichloro-N-[(1S,2S)-1-(hydroxymethyl)-2-methylbutyl]benzenesulfonamide], the “APPI % of Example #98” value is reported as 197.5%. CC[C@H](C)[C@@H](CO)NS(=O)(=O)c1ccc(Cl)c(Cl)c1 [Example 24, 3,4-dichloro-N-[(1S,2S)-1-(hydroxymethyl)-2-methylbutyl]benzenesulfonamide] was tested, and the “APPI % of Example #98” value was 38.6%. In the case of CC[C@H](C)[C@@H](CO)NS(=O)(=O)c1cc(Cl)c(Cl)cc1Cl [Example 25, 2,4,5-trichloro-N-[(1S,2S)-1-(hydroxymethyl)-2-methylbutyl]benzenesulfonamide], the “APPI % of Example #98” value is reported as 44.1%. For CC(C)[C@@H](CO)NS(=O)(=O)c1cc(F)c(Br)cc1F [Example 26, 4-bromo-2,5-difluoro-N-[(1S)-1-(hydroxymethyl)-2-methylpropyl]benzenesulfonamide], the “APPI % of Example #98” value was 58%. For CC(C)[C@@H](CO)NS(=O)(=O)c1ccc(Cl)c(Cl)c1 [Example 27, 3,4-dichloro-N-[(1S)-1-(hydroxymethyl)-2-methylpropyl]benzenesulfonamide], the “APPI % of Example #98” value was 53.6%. With CC(C)[C@@H](CO)NS(=O)(=O)c1c(Cl)cc(Cl)cc1Cl [Example 28, 2,4,6-trichloro-N-[(1S)-1-(hydroxymethyl)-2-methylpropyl]benzenesulfonamide] the “APPI % of Example #98” value was 34.8%. With CC(C)(C)[C@@H](CO)NS(=O)(=O)c1ccc(Cl)c(Cl)c1 [Example 30, 3,4-dichloro-N-[(1S)-1-(hydroxymethyl)-2,2-dimethylpropyl]benzenesulfonamide] the “APPI % of Example #98” value was 50.5%. In the case of CC(C)(C)[C@@H](CO)NS(=O)(=O)c1cc(Cl)c(Cl)cc1Cl [Example 31, 2,4,5-trichloro-N-[(1S)-1-(hydroxymethyl)-2,2-dimethylpropyl]benzenesulfonamide], the “APPI % of Example #98” value is reported as 66.7%.
